Data taken from publication PMC12136788.
This is one part of the list.

T1: UNK ZnF1-6 (called full-length) (human, UniProt Q9C0B0 30-357)
T1 sequence: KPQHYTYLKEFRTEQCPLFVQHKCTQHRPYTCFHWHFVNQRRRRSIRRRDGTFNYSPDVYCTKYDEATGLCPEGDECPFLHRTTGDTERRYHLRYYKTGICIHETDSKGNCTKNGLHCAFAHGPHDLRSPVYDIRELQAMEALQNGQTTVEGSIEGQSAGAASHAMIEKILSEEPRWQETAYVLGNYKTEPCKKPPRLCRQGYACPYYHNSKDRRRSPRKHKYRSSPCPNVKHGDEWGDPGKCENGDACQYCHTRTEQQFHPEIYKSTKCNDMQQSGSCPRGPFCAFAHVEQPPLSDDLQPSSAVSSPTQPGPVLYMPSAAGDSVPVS

B1: ENSG00000142192:stop:overlap|stop_codon|ENSG00000142192|stop_codon|NA|stop_codon (ssRNA)
RNA: GGGAGUUCUACAGUCCGACGAUCAGAUGCAGCAGAACGGCUACGAAAAUCCAACCUACAAGUUCUUUGAGCAGAUGCAGAACUAGACCCCCGCCACAGCAGCCUCUGAAGUUGGACAGCAAAACCAUUGCUUCACUACCCAUCCAACAGAGGAUUGAGCAUCA
B2: chr2:216675367:216675485:-|3pUTR|ENSG00000115461|msi1|FALSE|unique (ssRNA)
RNA: GGGAGUUCUACAGUCCGACGAUCGCCAGGCAGAGGCCAGCCCUCCGUGGUGCACACAGCACGCGCCUCAGUCCAUCCCAUUUUAGUCUUUAAACCCUCAGGAAGUCACAGUCUCCGGACACCACACCACAUGAGCCCAACAGGCAACAGAGGAUUGAGCAUCA
B3: ENSG00000198589:be:win_9151|3pUTR|ENSG00000198589|bound_else_gene|NA|bound_elsewhere_windowed (ssRNA)
RNA: GGGAGUUCUACAGUCCGACGAUCAUUGUGUGGUUAGCACAAGGAAUCUAAUUUAUAGCAAGUGUGAAAUAGUUACCAUUUUUUCCUGAUCUGUCAUCUUCAUAGCACAACAAAACGAAAUGAUGGAAAUGCUCUUGAGCUCACCAACAGAGGAUUGAGCAUCA
B4: chr1:109011400:109011505:-|CDS|ENSG00000085433|unk|total|mutant (ssRNA)
RNA: GGGAGUUCUACAGUCCGACGAUCGUCAUGGUUGCAGAAUUCAUCCCUGCUGACCGGAAGCUAAGUGAAGCUGGUUUUAAGGCCCGUAACAAUCGUUUAUUUCAGCUUGUAAUGAAAGGCCUGCUUUAUGAAUGCUGUGCCGAACAACAGAGGAUUGAGCAUCA
B5: chr5:16663783:16663884:-|3pUTR|ENSG00000145555|msi1|total|mutant (ssRNA)
RNA: GGGAGUUCUACAGUCCGACGAUCUGAGGAUACAAAAUUCACAGAUGCUCAAGUCCCUGCUAUACAGUGGUAUAAUAUUUGCACCGAACCUGCACACAUCUUUCCUUACCCUUUAAAUCAUCUCCAGGUUACAGAUACCCCGCACAACAGAGGAUUGAGCAUCA
B6: chrX:152133309:152134510:-|three_prime_utr|ENSG00000124260|control|control|control (ssRNA)
RNA: GGGAGUUCUACAGUCCGACGAUCUGAUUUUACUCAUAUGUGGAAUCUAAAAAAAAAAAAAAAAAAAGUUGGUAUCAUGGAAGUAGAGAGUAGAGCAGUAGUUACAUUACAAUUAAAUAGGAGGAAUAAGUUCUAGUGUUCUAUCAACAGAGGAUUGAGCAUCA
B7: chr20:3864521:3864622:+|CDS|ENSG00000088888|msi1|total|mutant (ssRNA)
RNA: GGGAGUUCUACAGUCCGACGAUCGCCCUGAAAGUGCCUGCCAACCCAGCAUCUGUCAGCACAGUGCCCUCCAAGUUGCCAACCCGCUCAAAGCCCCCUGGUGCAGUGCCUUCUAAUGCGCUCACCAAUCCAGCACCAUCCAAACAACAGAGGAUUGAGCAUCA
B8: ENSG00000115216:stop:overlap|stop_codon|ENSG00000115216|stop_codon|NA|stop_codon (ssRNA)
RNA: GGGAGUUCUACAGUCCGACGAUCACAAGUUCAAUUUUGCCAGGAACAGUACCCUCAACUCAGCCGCUGUCACCGUCUCCUCUUAGAGCUCACUCGGGCCAGGCCCUGAUCUGCGCUGUGGCUGUCCCUGGACGUGCUGCAGCCCAACAGAGGAUUGAGCAUCA
B9: ENSG00000132341:stop:overlap|stop_codon|ENSG00000132341|stop_codon|NA|stop_codon (ssRNA)
RNA: GGGAGUUCUACAGUCCGACGAUCUCUCGCCCCACCAGAAGUUGUCAUGGACCCAGCUUUGGCAGCACAGUAUGAGCACGACUUAGAGGUUGCUCAGACAACUGCUCUCCCGGAUGAGGAUGAUGACCUGUGAGAAUGAAGCUGCAACAGAGGAUUGAGCAUCA
B10: chr2:120221238:120221343:-|3pUTR|ENSG00000226479|unk|total|mutant (ssRNA)
RNA: GGGAGUUCUACAGUCCGACGAUCAUAUGUUGAAUUCCCGUUCUCUGCAUUACCAUUAUUACGUUAAAGUAUUUUUUAAAGCUCCGGUGUGAAGAUAUGUGUCUAUUGCAGAUGUCCUUGAAAACUGCAUAAAACAGUAUGUGCCAACAGAGGAUUGAGCAUCA
B11: chr19:58083837:58084684:-|three_prime_utr|ENSG00000121413|control|control|control (ssRNA)
RNA: GGGAGUUCUACAGUCCGACGAUCGCUCGCAUCCGAGGGGAGCCGCCGGAUGUGGAAGAAGACUCGGCUUUCCUGCAGCCAUUUAGUGCCGCCCCAUGCUAGGUUAUUUGACAUUGUGCAGUGUAGAGUUGCCUUAAAGUGCGUCAACAGAGGAUUGAGCAUCA
B12: chr1:93346344:93346492:+|5pUTR|ENSG00000117505|unk|total|mutant (ssRNA)
RNA: GGGAGUUCUACAGUCCGACGAUCGCCGCUCAAAUUUCCGGACCACCGCGCUUUCCCCUCCUCAGCCUGGGCUGUGCUCUCUCCCGAAUCCUCGGGCCCCCACUUUCUUCCCAAACUCAUCCUAAAUCUCUCACACACGCGAGUCAACAGAGGAUUGAGCAUCA
B13: ENSG00000136451:be:win_501|CDS|ENSG00000136451|bound_else_gene|NA|bound_elsewhere_windowed (ssRNA)
RNA: GGGAGUUCUACAGUCCGACGAUCUAAGCCUGUCAAGAAGAACCAUGCUUGUGAGAUGUGUGGGAAGGCCUUCCGAGAUGUGUACCAUCUCAAUCGACACAAGCUCUCCCAUUCAGAUGAGAAACCCUUUGAGUGUCCUAUUUGCAACAGAGGAUUGAGCAUCA
B14: chr17:63354981:63355093:+|CDS|ENSG00000170921|unk|total|mutant (ssRNA)
RNA: GGGAGUUCUACAGUCCGACGAUCCAGUCAAGGGUCCUAUCUAUAUCUGAAACUUACAUUUGACCUCACCGAGAAAGGCUAUCCCGUGUUAAAGAGCUCCCGCUACAAAGCCGUUCCUGUUUCGCUCUCAGAGGUUUAUUUACUCAACAGAGGAUUGAGCAUCA

Each binder was assayed against T1, UNK ZnF1-6 (called full-length) (assay: nsRBNS (natural sequence RNA bind-n-seq); RBNS binding buffer (assumed for nsRBNS): 25 mM Tris pH 7.5, 150 mM KCl, 3 mM MgCl2, 0.01% Triton X-100, 500 ug/ml BSA, 20 U/ml SUPERase-In, 4 C; UNK is unkempt and MSI1 is Musashi-1; names of the RNAs are library labels; protein concentration not given here; high values mean tight binding).

Binder | binding signal
B1 | 0.618 enrichment R
B2 | 2.44 enrichment R
B3 | 4.03 enrichment R
B4 | 0.748 enrichment R
B5 | 0.511 enrichment R
B6 | 2.99 enrichment R
B7 | 0.713 enrichment R
B8 | 1.02 enrichment R
B9 | 0.768 enrichment R
B10 | 0.71 enrichment R
B11 | 0.832 enrichment R
B12 | 1.2 enrichment R
B13 | 0.49 enrichment R
B14 | 0.664 enrichment R
